Measurements published in the supplement of paper PMC7335073.
The full ranking holds about 4,100 sequences; the median of “relative CpG methylation activity (normalised to average over all NNNCGNNN flanks)” is about 0.87, and the highest 2% start at about 2.4. The list shows a part of the results.

Each sequence was assayed against DNMT3A catalytic domain (mouse) (UniProt O88508) (assay: relative CpG methylation activity (normalised to average over all NNNCGNNN flanks) (relative (1 = mean)); higher = more methylation of the central CpG). Conditions: system: in vitro, murine catalytic domain; CpG state: hemimethylated substrate pool; residues: 608-908.
Protocol: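 Deep enzymology: a pool of dsDNA substrates with a central CpG flanked by 10 random nucleotides on each side was methylated by the murine DNMT3A or DNMT3B catalytic domain (0.8 mM SAM, 37 °C, 60 min). Methylation was then read out by hairpin ligation, bisulfite conversion and NGS. Values are the average methylation of each NNNCGNNN context (±3 flanks; the outer flanks are random and averaged over), normalised to the overall mean, so 1 = average activity.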

| Sequence | relative CpG methylation activity |
| --- | --- |
| ATTCGCGC | 1.11 |
| GTCCGGAT | 1.22 |
| CCGCGCAG | 0.397 |
| TTTCGAAT | 0.891 |
| AAACGCTT | 1.2 |
| GTACGACT | 1.42 |
| TCTCGGAC | 1.15 |
| AAGCGTGT | 0.333 |
| ATCCGCCG | 2.1 |
| TAGCGTGG | 0.133 |
| GGCCGTGC | 0.353 |
| CGTCGAAT | 0.537 |
| TATCGATG | 0.224 |
| TCACGTCA | 2.03 |
| CCGCGGTC | 1.06 |
| GCGCGCAT | 0.922 |
| GCACGCAT | 1.23 |
| AGCCGTAC | 0.397 |
| AGCCGACT | 0.799 |
| TTACGTAA | 2.54 |
| AGCCGGTT | 0.517 |
| CTGCGGTG | 1.2 |
| ACCCGCGT | 0.991 |
| AAGCGGTT | 0.381 |
| TATCGTAT | 0.573 |

| Sequence | relative CpG methylation activity |
| --- | --- |
| TTGCGTTC | 1.85 |
| TTTCGTAC | 0.893 |
| CATCGAGT | 0.652 |
| TAGCGCGA | 0.115 |
| ATCCGTGT | 0.694 |
| GGGCGTAT | 0.588 |
| GGGCGTGA | 0.51 |
| ACTCGAAG | 0.482 |
| TTACGTCA | 2.5 |
| GTGCGTAT | 1.03 |
| TTTCGTTT | 1.29 |
| GATCGTCC | 0.861 |
| CCGCGTGG | 0.205 |
| GCGCGACA | 1.12 |
| AGACGCGG | 0.252 |
| CTACGCCA | 2.74 |
| AAACGGAG | 0.162 |
| CAACGGGC | 0.902 |
| TCCCGTTT | 0.85 |
| TTTCGGCC | 1.08 |
| CATCGGTT | 0.591 |
| TGACGAAT | 0.413 |
| CCGCGACT | 0.959 |
| TAACGACA | 0.757 |
| CTTCGAAC | 1.43 |

| Sequence | relative CpG methylation activity |
| --- | --- |
| CTCCGCAT | 1.57 |
| AATCGAAC | 0.609 |
| GGCCGGCG | 0.667 |
| TACCGGAC | 0.736 |
| GGGCGGCT | 0.408 |
| ATCCGTAA | 1.55 |
| GATCGCGT | 0.317 |
| TCGCGCAA | 0.881 |
| AGGCGGCA | 0.573 |
| ACCCGCGA | 0.886 |
| GGGCGCTA | 0.886 |
| AATCGTTC | 0.385 |
| TCCCGCCG | 1.54 |
| ATCCGGAA | 0.939 |
| ATACGTTA | 1.8 |
| CCTCGGAA | 0.89 |
| CCTCGTGC | 0.658 |
| TTCCGGGC | 1.57 |
| GCGCGGCA | 0.876 |
| TACCGTAA | 0.741 |
| GGCCGTGT | 0.253 |
| GGACGGCG | 0.549 |
| GCACGGCG | 0.955 |
| CTTCGACC | 1.23 |
| GTACGCCT | 2.41 |

| Sequence | relative CpG methylation activity |
| --- | --- |
| CAGCGCTT | 1.34 |
| CTCCGGAT | 1.39 |
| TTTCGTGT | 0.603 |
| ATCCGAAG | 0.858 |
| AGGCGCAA | 0.518 |
| TTCCGCAA | 1.97 |
| TCCCGTGC | 0.865 |
| TTGCGCAA | 1.32 |
| GTACGACC | 2.03 |
| GGACGTTA | 0.944 |
| CGCCGTAT | 0.281 |
| AGACGTGC | 0.425 |
| ATGCGCCT | 2.22 |
| GTGCGGGC | 0.714 |
| AAACGCCG | 1.05 |
| GTTCGACG | 0.833 |
| CAACGGGG | 0.45 |
| TGCCGGTG | 0.417 |
| GGTCGAGT | 0.224 |
| GTCCGCGA | 1.63 |
| GCGCGGTT | 0.606 |
| GCTCGTCG | 1.41 |
| CGCCGGCT | 0.619 |
| GGACGGCA | 1.15 |
| GGTCGATT | 0.548 |

| Sequence | relative CpG methylation activity |
| --- | --- |
| CAGCGCTG | 0.814 |
| ATACGAAG | 1.39 |
| GACCGCCC | 1.92 |
| AGACGAAT | 0.678 |
| AAACGGCC | 1 |
| CTTCGCGT | 1.21 |
| ATTCGTCG | 1.06 |
| TTGCGGTT | 0.956 |
| CTACGCCT | 2.79 |
| TGTCGTGT | 0.125 |
| CTTCGTCC | 2.08 |
| GAGCGGTA | 0.682 |
| TACCGGAT | 0.52 |
| TGACGTAA | 0.953 |
| ACGCGGAG | 0.291 |
| AAACGGGG | 0.413 |
| CTACGCAG | 1.43 |
| GGACGAGT | 0.693 |
| GGCCGGTG | 0.339 |
| AGCCGCGG | 0.105 |
| ATTCGACA | 0.787 |
| AAGCGACT | 0.584 |
| ACACGGAT | 0.928 |
| CACCGCCC | 1.82 |
| CATCGCAT | 0.689 |

| Sequence | relative CpG methylation activity |
| --- | --- |
| AAACGGGT | 0.601 |
| GCGCGCCC | 2.18 |
| GTGCGGCA | 1.34 |
| TACCGGTT | 0.569 |
| TCACGAAT | 1.07 |
| CGCCGTAA | 1.14 |
| ATGCGTGA | 0.656 |
| ATTCGCAT | 1 |
| CAACGGAG | 0.355 |
| CCCCGGAC | 1.16 |
| ATTCGATT | 0.683 |
| GTGCGCAA | 1.3 |
| CGTCGTGA | 0.12 |
| CAGCGAGC | 0.568 |
| TTCCGCTC | 2.73 |
| GAACGCTC | 1.64 |
| CTACGTTC | 2.3 |
| CCTCGATC | 1.26 |
| AAGCGCGC | 0.435 |
| ACCCGTCC | 1.95 |
| AAACGTTT | 0.364 |
| TCGCGAGC | 1.48 |
| CCACGGTA | 1.35 |
| ACGCGCTG | 1.61 |
| TGACGCTA | 0.76 |

| Sequence | relative CpG methylation activity |
| --- | --- |
| CTCCGATT | 1.36 |
| CTACGGAG | 0.543 |
| GCGCGCTC | 1.9 |
| ATGCGCCC | 2.44 |
| ACTCGCGA | 0.856 |
| CGCCGAAG | 0.375 |
| CTACGAGT | 1.7 |
| TCCCGGTT | 0.65 |
| TTCCGCCA | 2.2 |
| ACTCGATA | 0.844 |
| CATCGAAA | 0.654 |
| CTACGTCA | 2.51 |
| AGACGCTC | 1.49 |
| CGACGCGG | 0.194 |
| CTCCGGCT | 1.42 |
| CAGCGTTA | 0.588 |
| TGACGGTA | 0.524 |
| CGACGAGC | 1.31 |
| AGTCGGGG | 0.0893 |
| ACGCGGGG | 0.494 |
| AGTCGGGA | 0.423 |
| TCGCGACC | 0.92 |
